# In paper PMC4336329 (PLoS ONE, 2015):
# Hit rate of the full screen: of about 310,000 compounds, about 2,200 (0.71%) showed an effect of 50% or more. The effect is printed as a negative number. This is one part of the list.
# Biological target: human ether-à-go-go-related gene (hERG) potassium channel (human, UniProt Q12809)
# Experiment: primary screen, population patch clamp on CHO cells stably expressing hERG
# Chain of human ether-à-go-go-related gene (hERG) potassium channel (Q12809 whole entry, looked up): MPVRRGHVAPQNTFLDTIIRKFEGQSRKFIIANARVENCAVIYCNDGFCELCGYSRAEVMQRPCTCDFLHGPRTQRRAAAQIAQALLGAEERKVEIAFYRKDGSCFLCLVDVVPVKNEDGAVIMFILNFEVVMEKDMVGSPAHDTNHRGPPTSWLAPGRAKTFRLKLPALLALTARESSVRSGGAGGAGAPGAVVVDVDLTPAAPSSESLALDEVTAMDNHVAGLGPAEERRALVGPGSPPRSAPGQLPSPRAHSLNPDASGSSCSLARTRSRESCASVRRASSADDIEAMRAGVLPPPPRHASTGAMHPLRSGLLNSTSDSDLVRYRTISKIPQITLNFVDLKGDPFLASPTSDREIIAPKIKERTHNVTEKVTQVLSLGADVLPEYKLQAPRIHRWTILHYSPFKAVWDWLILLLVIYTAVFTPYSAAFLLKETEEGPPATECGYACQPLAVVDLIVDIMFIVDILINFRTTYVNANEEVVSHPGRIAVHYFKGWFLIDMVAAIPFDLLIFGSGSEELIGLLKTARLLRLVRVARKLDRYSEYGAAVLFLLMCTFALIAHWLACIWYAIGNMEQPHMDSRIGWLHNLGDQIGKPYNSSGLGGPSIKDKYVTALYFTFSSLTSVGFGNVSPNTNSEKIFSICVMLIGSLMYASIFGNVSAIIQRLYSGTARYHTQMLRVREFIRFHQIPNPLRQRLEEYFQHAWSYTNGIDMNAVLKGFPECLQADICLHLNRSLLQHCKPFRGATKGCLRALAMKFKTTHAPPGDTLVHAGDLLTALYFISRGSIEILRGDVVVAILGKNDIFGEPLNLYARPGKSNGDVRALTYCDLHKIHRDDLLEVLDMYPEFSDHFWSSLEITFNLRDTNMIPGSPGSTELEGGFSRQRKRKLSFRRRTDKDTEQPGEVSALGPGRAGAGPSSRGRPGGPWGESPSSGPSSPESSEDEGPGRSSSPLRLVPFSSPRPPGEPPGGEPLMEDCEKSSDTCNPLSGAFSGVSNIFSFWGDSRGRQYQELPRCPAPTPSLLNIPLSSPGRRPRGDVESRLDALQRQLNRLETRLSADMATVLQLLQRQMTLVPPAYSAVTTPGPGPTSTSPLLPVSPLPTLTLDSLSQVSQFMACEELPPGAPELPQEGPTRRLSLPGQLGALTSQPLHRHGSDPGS
row,SMILES,"hERG current change (%, negative = inhibition) at 1uM [%]"
1,COc1cccc(CN2CCN(c3cccc(C(F)(F)F)c3)CC2)c1OC,-0.184
2,CC(Oc1ccc(F)cc1)C(=O)Nc1ccc(S(=O)(=O)NC2=NCCCCC2)cc1 (centres unmarked),8.82
3,O=C1CCCc2c1cc(C(=O)NC1CCSC1=O)c(=O)n2-c1ccccc1 (centres unmarked),11.6
4,C/C(=N\S(=O)(=O)c1ccc(C)cc1)N1CCN(S(=O)(=O)c2ccccc2)C1,-7.82
5,CN(C)N1C(N)=C(C#N)C(c2ccc(F)cc2)C2=C1CCCC2=O (centres unmarked),4.83
6,COc1ccc(C(=O)Nc2cnn(Cc3c(F)cccc3Cl)c2)cc1OC,14.2
7,O=[n+]1c2c(n([O-])c3c1CCCC3)CCCC2,-0.299
8,CCCN1CCC(NC(=O)Nc2ccc(OC)c(OC)c2)CC1,8.14
9,CC1(C)CC(=O)C=C(c2ccc3ncccc3c2)C1,10.8
10,Cc1cccc(NC(=O)c2ccc(COc3cccc4ccccc34)o2)n1,8.61
11,COc1cc(NC2=CC(=O)CC(C)(C)C2)cc(OC)c1OC,-4.45
12,COC(=O)c1cc([N+](=O)[O-])ccc1N1CCN(Cc2ccccc2)CC1,-41.1
13,CCOc1ccc(C(C(=O)NCC2CCCO2)N(Cc2ccccc2)C(=O)c2snc(C(N)=O)c2N)cc1 (centres unmarked),8.15
14,CC(=O)c1ccc(S(=O)(=O)Nc2ccc(-c3cn4c(n3)SCC4)cc2)cc1,-0.377
15,Cc1oc2c(c(C)cc3oc(=O)c(CC(=O)N[C@@H](CCCNC(N)=O)C(=O)O)c(C)c32)c1C,10.7
16,COc1cc(/C=N\Nc2ccc([N+](=O)[O-])cn2)ccc1OCC(=O)O,7.63
17,CN(CCO)c1cnccn1,11.3
18,CCOC(=O)C1CCN(C(c2ccc(OC)c(OC)c2)c2sc3nc(C)nn3c2O)CC1 (centres unmarked),18.4
19,Cc1ccc(N(C(=O)c2csnn2)C(C(=O)NC2CCCCC2)c2ccccn2)cc1C (centres unmarked),-5.94

row,SMILES,"hERG current change (%, negative = inhibition) at 1uM [%]"
1,Cc1nn(-c2ccccc2)c2c1C(c1cccnc1)N1C=C(S(=O)(=O)N3CCCCC3)C=CC1=N2 (centres unmarked),14.3
2,Cc1c(/C(Cc2ccccc2)=N/O)c2ccccc2n1C,0.738
3,Cc1nc(Nc2ccc(O)cc2)c2c3c(sc2n1)CCCC3,4.26
4,COC(=O)c1ccc(OCC(=O)Nc2ccsc2C(=O)OC)cc1,4.45
5,O=c1[nH]c(SCc2ccccc2Cl)nc2c1CCCC2,5.36
6,O=C(O)/C=C\c1cn(-c2ccccc2)nc1-c1cc2ccccc2o1,15.7
7,O=C1c2ccccc2C(=O)N1CCOc1ccccc1Cl,5.4
8,O=C(NC(c1ccccc1)c1cc(Cl)c2cccnc2c1O)c1cccnc1 (centres unmarked),4.18
9,O=C(CCNS(=O)(=O)c1cccs1)NC1CCN(Cc2ccccc2)CC1,15.9
10,COc1cc(S(=O)(=O)NCc2ccccc2Cl)ccc1-n1cnnn1,8.28
11,Cc1nc2cc(C(=O)OCC(=O)Nc3cccc(Cl)c3)ccc2n1-c1ccccc1,2.97
12,O=C(CSc1nnc(-c2cccnc2)n1-c1ccccc1)Nc1ccc2c(c1)OCO2,-1.28
13,CC1CCC(NC(=O)c2ccc(COc3ccccc3)o2)CC1 (centres unmarked),8.65
14,CCOC(=O)CCc1c(C)c(C#N)c2nc3ccccc3n2c1-n1ccnc1,-15.5
15,O=C(CCCNS(=O)(=O)c1cccs1)N1CCN(c2ccc(F)cc2)CC1,-13.2
16,COc1ccc(C(=S)N2CCN(C)CC2)cc1,-1.07
17,CC(=O)C(Cc1ccccc1)NC(=O)CN1CCN(Cc2ccccc2)CC1 (centres unmarked),1.93
18,Cc1ccc(S(=O)(=O)N2CCC(=O)N(C(COCc3ccccc3)C(C)C)CC2)cc1 (centres unmarked),3.6
19,O=c1[nH]c(/C=C\c2cccc(Cl)c2)nc(O)c1[N+](=O)[O-],13.6

row,SMILES,"hERG current change (%, negative = inhibition) at 1uM [%]"
1,CC1CC(C)CN(CCCNC(=O)c2ccc(CS(=O)(=O)Cc3ccccc3F)o2)C1 (centres unmarked),-1.31
2,Cc1ccc(NC(=O)C(OC(=O)c2ccc(C=O)cc2)c2ccccc2)cc1Cl (centres unmarked),-1.36
3,CCn1ccc2cc(OC)ccc2c1=S,17.4
4,COc1ccc(NC(=O)CSc2ncnc3c2nnn3-c2ccc(F)cc2)c(OC)c1,3.61
5,Nc1nonc1-n1nnc(C(=O)N/N=C\c2ccncc2)c1CN1CCCCC1,7.34
6,Cc1nc2ncnn2c(C)c1CCC(=O)NCCC1=CCCCC1,-14.9
7,Cc1ccccc1NC(=O)Cc1nc(COC(=O)c2cccc(C)c2O)cs1,-0.492
8,CC(NC(=O)c1cc2cc([N+](=O)[O-])ccc2oc1=O)C1CCCO1 (centres unmarked),6.39
9,Cc1cccc(N)c1-c1c(C)cccc1N,5.5
10,O=C(N(Cc1ccccc1)c1ccccn1)C12CC3CC(CC(C3)C1)C2,-7.1
11,CC(C)C(=O)Nc1cc2c(cc1C(=O)c1ccccc1)OCCO2,3.33
12,CCOC(=O)c1[nH]c2ccc(Br)cc2c1NC(=O)CNC,5.46
13,CNC(=O)[C@@H]1CCC(=O)N1,8.25
14,CCc1cc2c(=O)c(-c3nc4ccccc4n3C)c(C)oc2c(CN2CCN(C)CC2)c1O,14.2
15,Cc1noc2ncnc(Oc3ccc4ccccc4c3)c12,7.17
16,CCCCCN(C(=O)CCC(=O)OC(C)C(=O)NC1CCCCC1)c1c(N)n(CCCC)c(=O)[nH]c1=O (centres unmarked),13.5
17,COc1ccc(C)cc1NC(=O)c1sc2nc(C)nc(N3CCOCC3)c2c1C,2.09
18,COc1cc([N+](=O)[O-])c(N2CCOCC2)c([N+](=O)[O-])c1OC,3.93
